Data taken from patent US20210230280A1 (EXIRIS S R L, published 2021).

Target: T1, human chimeric receptor FGFR4-Fc (R&D Systems) (human, UniProt P22455 22-369)
T1 construct: extracellular domain; bought; also called hFGFR4-Fc; not shown: human IgG Fc
T1 sequence (looked up): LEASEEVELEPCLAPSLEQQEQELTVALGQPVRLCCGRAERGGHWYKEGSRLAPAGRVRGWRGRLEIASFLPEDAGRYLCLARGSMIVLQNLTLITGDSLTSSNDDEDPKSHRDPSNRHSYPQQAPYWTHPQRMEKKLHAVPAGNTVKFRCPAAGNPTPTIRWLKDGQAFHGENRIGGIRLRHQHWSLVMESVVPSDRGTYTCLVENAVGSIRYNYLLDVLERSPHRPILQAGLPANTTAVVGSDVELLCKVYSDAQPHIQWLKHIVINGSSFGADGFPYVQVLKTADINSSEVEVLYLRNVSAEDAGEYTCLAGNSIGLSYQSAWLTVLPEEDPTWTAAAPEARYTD
Test: solid phase binding assay, FGF19 with heparin on FGFR4-Fc

Kd: 23 nM
B1: recombinant FGF19 (Peprotech) (ligand)
chain: not shown
notes: added with equimolar low molecular weight heparin
